# Data reported in the supplement of paper PMC12217912.
# The other results are listed elsewhere or left out. The full chains were built here from the parent and the listed change. Values near 0.05 are background.
# B1: TEV protease; numbered along this chain (parent)
# chain: MGESLFKGPRDYNPISSSICHLTNESDGHTTSLYGIGFGPFIITNKHLFRRNNGTLVVQSLHGVFKVKDTTTLQQHLVDGRDMIIIRMPKDFPPFPQKLKFREPQREERICLVTTNFQTKSMSSMVSDTSCTFPSGDGIFWKHWIQTKDGQCGSPLVSTRDGFIVGIHSASNFTNTNNYFTSVPKNFMELLTNQEAQQWVSGWRLNADSVLWGGHKVFMVKPEEPFQPVKEATQL
# Variants of: B1
# Assay: raw area under fraction-flipped curve 0-4 h after induction (AUC4h, not background-subtracted), DNA-recorder readout of cleavage of the substrate (dimensionless); higher = more cleavage of the substrate by the protease variant
# Conditions: temperature: 34 °C; time window: 0-4 h after rhamnose induction
# 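Note: Bxb1 expression induced with 0.2% (w/v) L-rhamnose at OD600 near 0.5, cultures sampled hourly, flipped fraction per protease–substrate barcode pair counted by paired-end Illumina sequencing.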
Variant,area with substrate ENLCFQS,area with substrate ENLDFQS,area with substrate ENLEFQS,area with substrate ENLFFQS,area with substrate ENLHFQS,area with substrate ENLKFQS,area with substrate ENLLFQS,area with substrate ENLPFQS,area with substrate ENLRFQS,area with substrate ENLSFQS,area with substrate ENLVFQS,area with substrate ENLMFQS,area with substrate ENLNFQS,area with substrate ENLGFQS,area with substrate ENLWFQS,area with substrate ENLTFQS,area with substrate ENLQFQS,area with substrate ENLIFQS
S158H,0.0564,0.0574,0.0373,0.0529,0.0576,0.0549,0.0368,0.0464,0.059,0.0431,0.0467,–,–,–,–,–,–,–
N52M,–,0.0625,–,0.0644,–,0.076,0.0612,–,–,0.0708,0.0642,0.0394,0.108,–,–,–,–,–
E231M,0.0583,0.0648,0.0673,0.0978,0.067,0.0891,–,0.0809,–,0.0543,–,0.0819,0.0668,0.0754,0.0643,–,–,–
T72P,–,0.0614,–,0.0707,0.059,0.0685,0.0524,0.0498,0.0544,0.0524,–,–,0.0685,–,0.0504,0.0623,–,–
E195C,0.074,0.0494,0.0914,–,0.0636,0.0681,–,0.0284,–,–,–,–,0.057,–,0.0651,–,–,–
M188C,0.063,0.062,0.0761,–,–,–,–,–,–,0.0616,0.0667,–,0.0578,–,–,0.0839,–,–
L61A,–,0.0825,–,0.0812,0.0696,0.0705,–,0.0518,0.0723,0.0626,–,–,0.0447,–,–,–,0.0653,–
F218H,0.0694,0.058,0.0659,0.0732,0.0657,0.0689,0.0684,0.058,0.0642,0.0561,–,–,0.0666,0.0862,–,0.0755,–,0.066
K7A,–,0.0881,0.0944,0.0952,–,–,0.0852,0.0443,–,–,–,0.0839,0.0767,–,0.0847,–,–,0.0718
K68F,–,0.0476,–,0.0836,–,0.0743,–,–,–,0.0669,–,–,0.052,–,–,–,–,0.0635
V64N,–,0.0593,0.0741,0.0849,0.0562,0.0719,0.0757,0.0759,0.0604,–,–,0.065,0.0625,–,–,0.06,0.0779,–
R51M,–,0.0594,–,0.085,0.0786,0.0812,–,0.0603,0.0811,0.0504,0.0744,–,0.0734,0.0653,0.066,0.082,–,0.0949
E224M,0.054,0.069,0.0755,0.0766,–,0.0758,0.0788,–,0.0617,–,0.0853,–,–,–,0.0655,–,–,0.0741
T159Y,0.0706,0.0588,0.0466,–,0.0504,0.0807,0.0635,0.0493,–,–,–,–,–,0.0722,0.0661,–,0.0685,–
N45D,–,0.0583,0.0578,0.0588,0.0611,0.0655,0.0579,0.0613,0.0614,0.0623,0.0533,–,0.0653,–,0.062,–,–,–
I164L,0.068,0.0594,0.0716,0.0907,0.0635,0.0671,0.0763,0.0568,–,0.0497,–,–,0.0599,0.0578,0.0653,–,–,–
V229H,0.0752,0.0406,–,0.0991,–,0.0762,0.0771,0.0631,0.0735,–,0.0922,–,0.0706,–,0.0707,–,–,–
